Results taken from US20240327509A1, “HUMAN CXCLI6 ANTIBODIES AND THE USE THEREOF” (CELLUS,INC., priority 2021, published 2024).

Legend:
[1] = system: Human CD11b+bone marrow myeloid cells; assay: two-chamber in vitro model of bone metastasis, cell migration; assay type: cell-based; settings: FIG. 8B
Procedure: In some embodiments, the CXCL16 antibodies disclosed herein inhibit bone metastasis of cancer cells. The antibodies activity in inhibiting bone metastasis is assessed with methods well-known in the art. One exemplary method uses a two-chamber system mimicking the metastatic niche of bone. In brief, an upper chamber, which is a mesh insert, is suspended within a lower chamber. The lower chamber contains cancer cells/whole marrow cell co-cultures and CXCL16 enriched fluid, mimicking the microenvironment of the metastatic niche of bone. The upper chamber harbors pre-osteoclasts from the bone marrow (for example, Human CD11b+bone marrow myeloid cells). Typically, pre-osteoclasts differentiate into osteoclasts, which support tumor formation in the metastatic niche of the bone. Inhibiting pre-osteoclasts migration thus could effectively block tumor progression in the metastatic niche of the bone, i.e., inhibiting bone metastasis. After contacting the cells in the upper chamber with the CXCL16 antibody, cells retained in the upper chamber (aka, the mesh of the insert) are counted; the number of these cells positively correlates with the ability of the antibodto inhibitng cell recruitment into the metastatic niche:
A two-chamber system was set up to resemble the metastatic niche of bone. A lower chamber contains a conditioned medium (CM) of cancer cells/whole marrow cell co-cultures (called co-CM), which is CXCL16 enriched. CM from cancer cell cultures alone is used for control, referred to as single-CM. Single-CM contains negligible concentrations of CXCL16. An upper chamber (using insert) harboring cells that can be recruited into the metastatic chambers. Human CD11b+bone marrow myeloid cells were treated with the CXCL16 antibodies for one hour, and the treated cells were added to upper chamber. After 4 hr, the insert (aka. the upper chamber) was harvested and cells in the insert were stained and the ability of the CXCL16 antibody in inhibiting cell recruitment into the metastatic niche were assessed.

[2] = system: thyroid cancer cell BHP10-3M; assay: transwell migration assay toward co-CM; assay type: cell-based; settings: antibody 10-100 μg/mL, 6 hours, FIG. 2B
Procedure: To evaluate that blockage of CXCL16 could lead to inhibit cancer cell migration. transwell migration assay was performed. For assay, 8 μm pore-size polycarbonate membrane (Corning, NY, USA) was used. A polycarbonate membrane with a pore size of 8 μm (Corning, NY, USA) was pre-coated with gelatin, and the membrane was placed into a 24-well plate. The membrane separated each well into an upper chamber and a lower chamber. CXCL16 antibody (at 10-100 μg/mL) was preincubated in the upper and lower chamber for 0.5 hours. The upper and lower chamber were plated with thyroid cancer cell BHP10-3M (1×10^5/100 μL) and co-culture conditioned medium (0.5× co-CM), respectively.
The co-CM is the conditioned medium obtained from co-culture of BHP 10^-3M and THP-1 cells. The BHP10-3M cells were seeded on 100 mm culture dishes with 3×10^6 cells in 10 ml of RPMI1640 medium. After 24 hours incubation, THP-1 cells were seeded additionally with 6×10^6 cells. After then, 10 μL of 5 mM PMA stock solution (V1171, Promega) to 10 mL of RPMI medium to make 5 μM PMA. It induced the macrophage differentiation. After 24 hours incubation, the conditioned medium obtained from the co-culture of thyroid cancer cells and macrophages (co-CM) were collected, and it was rich in CXCL16. After 6 hours of incubation of thyroid cancer cells in the upper chamber and co-CM in the lower chamber, the lower chamber was stained with 1% crystal violet solutions and the numbers of migrated cells were counted. […] Sec FIG. 2B.

Akt phosphorylation = assay: rhCXCL16-induced Akt phosphorylation in cancer cells (western blot); assay type: cell-based; settings: 100 ng/ml rhCXCL16 30 minutes, 10 μg/mL antibody; thyroid, breast and prostate cancer cells; FIG. 3
Procedure: The CXCL16-CXCR6 interaction activates intracellular Akt signaling pathway, which promote cell migration. This experiment was designed to evaluate the ability of CXCL16 antibodies in blocking the Akt signaling induced by the CXCL16-CXCR6 interaction. Cancer cells were treated with 100 ng/ml of rhCXCL16 (976-CX, R&D systems) for 30 minutes in the presence of 10 μg/mL of humanized CXCL16 antibody (HC4LC1, HC5LC1. HC5LC2. HC5LC3. or HC5LC5) or control antibody (MAB976. R&D Systems, Minneapolis, MN). Cell lysates were harvested. Anti-pAkt (dilution ratio 1:1000, #9102; Cell Signaling), anti-Akt (dilution ratio 1:1000, #4370; Cell Signaling), and anti-β actin antibodies (dilution ratio 1:10,000, STJ91464, St John's laboratory, UK) were used. […] HCSLC2.

[3] = molecular target: T1, Recombinant human CXCL16 (rhCXCL16) protein (Homo sapiens, UniProt Q9H2A7); assay: bio-light interferometry (ForteBio) binding analysis
T1 sequence (Q9H2A7 30-118): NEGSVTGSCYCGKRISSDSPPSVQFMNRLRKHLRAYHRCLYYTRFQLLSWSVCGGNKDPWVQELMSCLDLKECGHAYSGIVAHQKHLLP
Procedure: The binding characteristics of 25 CXCL16 antibodies were analyzed using the bio-light interferometry (ForteBio). All antibodies were diluted in freshly prepared running buffer. Antibodies were immobilized onto the surface of a series of biosensors using the capture methods at 0.3 μg/mL. Recombinant human CXCL16 (rhCXCL16) protein (100 nM) was passed over the surface to generate a binding response for 10 minutes. Binding data for the antibody and antigen interactions were collected at 25° C. on the biosensors. Then, the running buffer was passed for 10 minutes to dissociate them. The association constant (ka) and the dissociation constant (ka) were observed, and the equilibrium binding constant (KD) was calculated. […] R2: The value indicating how well the fit and experimental data correlate; X^2: The measure of error between the experimental data and fitted line.

[4] = molecular target: T2, recombinant human CXCL16 antigen (Homo sapiens, UniProt Q9H2A7); assay: protein-based ELISA on immobilized human CXCL16 antigen; assay type: binding; settings: antibody 0.001~10 nM; versus control IgG antibody; FIG. 1A
T2 construct: purchased R&D systems 976-CX
T2 sequence (Q9H2A7 30-118 limits assumed): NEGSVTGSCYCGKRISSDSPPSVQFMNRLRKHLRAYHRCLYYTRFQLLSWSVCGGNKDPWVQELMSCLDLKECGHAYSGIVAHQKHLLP
Procedure: To further characterize the binding affinity of selected 6 of CXCL16 antibodies, the protein-based ELISA was performed. The recombinant human CXCL16 antigen (976-CX, R&D systems, USA) was immobilized onto 96-well plates and incubated for 2 hours at room temperature. Non-specific binding sites were blocked by incubating with 1% BSA in PBS overnight at 4° C. Plates were then washed with PBS. Humanized CXCL16 antibodies at various concentrations (0.001˜10 nM) were incubated with the immobilized antigen for 2 hours at room temperature. After the incubation, the plates were washed, incubated with HRP-labeled anti-human IgG antibody (W4031, Promega, USA) for 0.5 hours, and developed using the substrate solution (DY008B, R&D systems).

[5] = system: CXCR6-overexpressed CHO-K1 cells; assay: transwell migration assay toward rhCXCL16; assay type: cell-based; settings: 100 ng/mL rhCXCL16 in lower chamber, 4-5 h; FIG. 2A
Procedure: CXCR6 is a receptor for chemokine CXCL16 and cells harboring CXCR6 migrate in response to CXCL16. Therefore, to evaluate the activity of CXCL16 antibody in inhibiting cell migration induced by CXCL16 and CXCR6 interaction, transwell migration assays were performed. A polycarbonate membrane with a pore size of 8 μm (Corning, NY, USA) was pre-coated with gelatin, and the membrane was placed into a 24-well plate. The membrane separated each well into an upper chamber and a lower chamber. The upper chamber was plated with CXCR6-overexpressed CHO-K1 cells. The lower chamber was filled with media containing 100 ng/mL rhCXCL16. After 4-5 h, the lower chamber was stained with 1% crystal violet solutions and the numbers of migrated cells on the lower chamber were counted.

[6] = antibody captured on biosensor, rhCXCL16 100 nM, 25° C., ND = signal was not detectable

ka [3, 6]: 1.82E+04 m^−1s^−1 | kd [3, 6]: <1e-07 s⁻¹ | binding to human CXCL16 ([3]; in words): strong binding
B1: HC5LC5: humanized CXCL16 antibody, VH SEQ ID NO: 5, VL SEQ ID NO: 10; heavy chain SEQ ID NO: 42, light chain SEQ ID NO: 47 (antibody)
heavy: EVQLVESGGGLVQPGGSLKLSCAASGFTFSNAVMNWVRQASGKGLEWVARIRTKPNNYATFYADSVKGRFTFSRDDSKNTAYLQMNSLKTEDTAMYYCTAWTTEGIYWGQGTLVTVSS[human IgG1 constant region left out]
light: DIVMTQSPSSLAVSAGERATINCKSSQSLLYSGNQKNYLAWYQQKPGQSPKLLIYWASTRQSGVPDRFIGSGSGTDFTLTISSLQAEDVAIYYCQQYYDTPWTFGGGTKLELKRTVAAPSVFIFPPSDEQLKSGTASVVCLLNNFYPREAKVQWKVDNALQSGNSQESVTEQDSKDSTYSLSSTLTLSKADYEKHKVYACEVTHQGLSSPVTKSFNRGEC
chemotaxis and migration (migration of CD11b+ cells) [1]: inhibits chemotaxis and migration | cell migration into the lower chamber of BHP10-3M cells [2]: decreased the migration | Akt phosphorylation activated by rhCXCL16 (Akt phosphorylation): abrogate the Akt phosphorylation | binding affinity to human CXCL16 (ELISA) [4]: significantly higher than a control IgG antibody | migration of CXCR6-overexpressed CHO-K1 cell from upper chamber to the lower chamber [5]: inhibited the migration
